Measured values: PMC6212790
The other results are listed elsewhere or left out. At the low end of the ranking the order means little.

Molecular target: T1, GST-Rok (full length) (UniProt O34857)
T1 sequence: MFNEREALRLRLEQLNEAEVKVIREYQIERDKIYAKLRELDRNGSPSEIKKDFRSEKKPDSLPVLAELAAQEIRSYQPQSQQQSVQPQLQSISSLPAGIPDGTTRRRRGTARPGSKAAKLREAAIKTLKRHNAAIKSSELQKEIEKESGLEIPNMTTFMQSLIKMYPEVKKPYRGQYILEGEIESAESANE
Assay: protein binding microarray;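 also: rank score from −0.5 (least bound) to 0.5 (best bound)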
Settings: Rok is a gene silencer of Bacillus subtilis; high values mean tight binding; most listed sequences are background and not binding sites; double strand, one strand shown

Row | Sequence | binding signal [E-score]
1 | TCTATGCA | 0.183
2 | GAGGGCGA | -0.309
3 | GAGGGTGA | -0.104
4 | AGAAATAC | 0.306
5 | AGAATGAA | 0.111
6 | GCTCGTAA | 0.0131
7 | TCATGTAA | 0.125
8 | CTAAAAAG | -0.0698
9 | AAACTGGA | 0.103
10 | AAGCGCAC | -0.267
11 | AAAAAGCA | -0.0681
12 | GATGGCCC | -0.261
13 | ATCAATTC | 0.2
14 | AGAGAGCA | -0.184
15 | ATAGCTCG | 0.119
16 | ACTGTCAA | 0.215
17 | CAATAGCG | 0.0208
18 | ACGGGTTC | -0.114
19 | AGCAGGAA | -0.0945
20 | AAAGATTT | 0.0714
21 | CACGCCAA | 0.0393
22 | GCCCTTCC | -0.339
23 | AAGAAGCT | -0.0218
24 | AGAGTGGC | -0.135
25 | CCTTCAGC | -0.119

Row | Sequence | binding signal [E-score]
26 | AGGGCTCA | -0.296
27 | GGGGTTTA | -0.386
28 | TGATCGAA | 0.0419
29 | TACAACAA | 0.235
30 | AACTTGCG | 0.0526
31 | TAATAGGA | 0.202
32 | AAGCTATA | 0.231
33 | GCACGAGC | -0.213
34 | GCTACGAA | 0.0976
35 | ATTCAACG | 0.0169
36 | GAAGGGCA | -0.15
37 | AGATCGAC | 0.0979
38 | GGGTTTCA | -0.306
39 | CACGAATG | 0.0132
40 | AGAAAACT | 0.134
41 | GCCCAGGC | -0.236
42 | CGGGCCCG | -0.36
43 | CGATAAGC | 0.0195
44 | TGATCTAA | 0.0276
45 | CTTCCAGA | -0.106
46 | CTGAGGAC | -0.157
47 | GAAGAGGC | -0.313
48 | AAATTGCT | 0.287
49 | ATACTAAC | 0.199
50 | AAACACGT | 0.0783

Row | Sequence | binding signal [E-score]
51 | GCATCAAA | 0.115
52 | AGACGGTA | 0.2
53 | GCCAGACC | -0.234
54 | AGGAGTCC | -0.0508
55 | TGAACACA | -0.0647
56 | AACCCACG | -0.24
57 | AACGAGAA | -0.0529
58 | CCACGCGC | -0.086
59 | ATAAGAGC | 0.12
60 | AACCTACA | 0.257
61 | ACAAGCGG | -0.0896
62 | CAAAAAAA | 0.0976
63 | GATGGTCA | -0.126
64 | ACTAGCTC | 0.134
65 | TGTTGAAA | 0.111
66 | GCAGAGCC | -0.292
67 | CTCCTTCC | -0.183
68 | ATAACCCG | -0.0742
69 | GTGCTCCA | -0.203
70 | CACGATTA | 0.0292
71 | CTCCGTAC | -0.139
72 | GAACCGGC | -0.0826
73 | ACTAAGCT | 0.198
74 | AACACTAC | 0.166
75 | CTAGCTCC | -0.0709

Row | Sequence | binding signal [E-score]
76 | CATCCAGG | -0.152
77 | CGCTCCAA | -0.252
78 | ACGAACCT | -0.0668
79 | GCCCCCCC | -0.341
80 | ACCCAGAT | 0.0718
81 | AGTTGTAG | 0.274
82 | ACCGCAGC | -0.0419
83 | ACTGAGCG | 0.116
84 | AAGAGGTC | -0.00652
85 | AAGCTGGA | -0.134
86 | AACTGGAA | -0.0261
87 | ATCCGAAA | -0.0355
88 | AGGATATC | 0.0246
89 | AACACATT | 0.151
90 | GCGCATAA | 0.183
91 | CAATTGAA | 0.101
92 | CCATCTCC | -0.168
93 | ATGTAGAC | 0.257
94 | CAGGGCAG | -0.423
95 | AGAGGTAT | 0.00833
96 | CGCCTCCA | -0.0635
97 | GAACACCA | -0.0539
98 | GCTGGCCA | -0.332
99 | ATACAACA | 0.27
100 | CGCGATAG | 0.145

Row | Sequence | binding signal [E-score]
101 | AAGATGTG | 0.000255
102 | CGTGGATA | -0.0193
103 | AAGGGGTG | -0.386
104 | TATTGGGA | -0.172
105 | TACATGCA | 0.223
106 | CTGTTCGA | 0.122
107 | GATAAACA | 0.115
108 | AGTTCCAG | 0.115
109 | AAGAACGA | 0.135
110 | CCATTTTA | 0.153
111 | AAACGCCC | -0.192
112 | CCTGATTC | 0.0458
113 | GAACACAA | 0.00185
114 | CATCAGCG | 0.0251
115 | TCCGGCAA | -0.141
116 | AAGACCCA | -0.047
117 | CGACCCCG | -0.371
118 | CTGTAACC | -0.068
119 | ATCCAGCA | -0.0227
120 | GAGAAGCC | -0.225
121 | GCGGCCGA | -0.36
122 | CTCGGAAG | -0.103
123 | AAGTCCCG | -0.14
124 | AAACTTAA | 0.166
125 | CAAGGGAG | -0.257

Row | Sequence | binding signal [E-score]
126 | AAACAAGA | -0.00313
127 | CGAAACAC | 0.0369
128 | CACTAAAA | 0.293
129 | CTCATATC | 0.0566
130 | CGCCAAAC | -0.151
131 | TCCGTCAA | 0.026
132 | GTCGTGAA | -0.0555
133 | ACGTCCTG | -0.113
134 | AATGTTAC | 0.156
135 | CAAGGAAA | -0.213
136 | CTTGATCC | -0.0954
137 | ACTTGCGA | -0.0722
138 | CTAAGTAA | 0.279
139 | ATTTGGTA | 0.273
140 | CCTGGACC | -0.261
141 | CAAGGGGA | -0.407
142 | GGAGGCTA | -0.158
143 | GACGCTTA | -0.0271
144 | AAATTCAT | 0.128
145 | CTCGGAGC | -0.168
146 | CCGCTGAA | -0.065
147 | AATATGCG | 0.178
148 | AAGGCCTG | -0.136
149 | GAGTGCAA | -0.0314
150 | AATAAGCT | -0.0481

Row | Sequence | binding signal [E-score]
151 | ACGGGAGA | -0.144
152 | GCCCTCGA | -0.397
153 | GGCCAACA | -0.0856
154 | CCAAACCC | -0.258
155 | AAAGATGA | 0.00175
156 | CAACGCCC | -0.181
157 | CGTTGGTC | -0.239
158 | CGGGACCA | -0.274
159 | GCAATCCC | -0.159
160 | AGTGGCGG | -0.184
161 | ACCCTAGC | -0.0137
162 | AGACGACG | -0.172
163 | CTCGTCAG | -0.0781
164 | CTTGGCCA | -0.187
165 | AAGGAGAA | -0.0852
166 | ACAACCCA | -0.102
167 | GTAACTGA | 0.142
168 | ACGACGCG | -0.0374
169 | AAGTCGCA | -0.0805
170 | CTAGCGTA | 0.25
171 | ATTCACCG | -0.149
172 | ACTATAGT | 0.409
